Consider 23 sequences from PMC7819943, “Rice protein-binding microarrays: a tool to detect cis-acting elements near promoter regions in rice”.

The list shows a part of the results.

For this test, the target named is T1, OsWOX13 (Oryza sativa, UniProt Q5QMM3 1-267).
T1 sequence: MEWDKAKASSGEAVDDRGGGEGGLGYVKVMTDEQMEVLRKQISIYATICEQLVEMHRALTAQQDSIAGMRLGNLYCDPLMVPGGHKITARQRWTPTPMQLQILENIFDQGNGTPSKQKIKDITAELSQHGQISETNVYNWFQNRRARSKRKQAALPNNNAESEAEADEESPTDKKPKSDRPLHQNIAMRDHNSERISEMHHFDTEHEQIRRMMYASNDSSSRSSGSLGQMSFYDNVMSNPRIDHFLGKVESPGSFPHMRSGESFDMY
The test is described as follows: protein-binding microarray (RPBM); PBS, 2% BSA, 51.3 ng/ul salmon testes DNA, 50 uM zinc acetate, 200 nM TF, 25 C, 1 h; high values mean tight binding. To be noted: protein: recombinant; tags: N-terminal polyhistidine and DsRed monomer fusion (pET32a); label: CyDye5-dUTP incorporated in the synthesized complementary strand; 3' TTTTT single-stranded linker to array surface; dsDNA, one strand shown. A digest of the protocol:
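For the binding signal, per-feature fluorescence intensity was read in arbitrary units on an Axon 4000B scanner. Before scanning, a 2% BSA-blocked custom Agilent array made double-stranded with Cy5-dUTP was washed after 1 h at 25 °C with 200 nM protein and 50 µM zinc acetate. The proteins were Ni–NTA-purified transcription factors with N-terminal polyhistidine and DsRed fusions, expressed in E. coli BL21-CodonPlus.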
Turning to “GAGTACATCAGCGATAATTTTGGTCTTACTAAAATTATGTCGGAGTCACCTAGTGCAG”, the binding signal was 3400 fluorescence intensity (a.u.).

Turning to “TAGTAATCATTTGCATTCTATTAGCTGTAAAATAACATGACGGAGTCACCTAGTGCAG”, the binding signal is 4460 fluorescence intensity (a.u.). For “GTACACTGTTCCCAATAATTAGTGAAAACTGTTGATGCCTCGGAGTCACCTAGTGCAG”, the binding signal was 5320 fluorescence intensity (a.u.). The same measure for “TATATATATATATATATATATATATCTGATGCTCTCTTGCCGGAGTCACCTAGTGCAG”: 32000 fluorescence intensity (a.u.); for “GTTTAGCAAATCCAGCACCCATTATACAGACTTTCTATGCCGGAGTCACCTAGTGCAG”: 65500 fluorescence intensity (a.u.).

On to “GTGCTTCTTTTGTTAATGATGATTAGTTCATACAGTATGACGGAGTCACCTAGTGCAG”, for which the binding signal is 11200 fluorescence intensity (a.u.). With “TTGACAGCAAATCGAGGAAATATGAATACGAAAGTAAACACGGAGTCACCTAGTGCAG” the figure was 4490 fluorescence intensity (a.u.); with “TCTTGATTGCTCTTGAGCCCGCATTTCTTCCCCTTCTTTACGGAGTCACCTAGTGCAG”, 25900 fluorescence intensity (a.u.); with “ATTAGTTTGAGTAATTAGCTGCAATACATTATGACATATACGGAGTCACCTAGTGCAG”, 3740 fluorescence intensity (a.u.). With “AGAACAGTTGATTTATTATGCACTAGTATAAATTCCAAACCGGAGTCACCTAGTGCAG” the figure was 11200 fluorescence intensity (a.u.); with “GTACAACAATTATAAAATTAAAATTGCATTTACCCGTTGCCGGAGTCACCTAGTGCAG”, 9520 fluorescence intensity (a.u.).

Consider “ATAGATTTTCAGTAACAGGGTGTAATAGCCACCGCCATAACGGAGTCACCTAGTGCAG”, for which the binding signal was 6130 fluorescence intensity (a.u.).

In the case of “TGTAATTGGCATCTTGTATGCTTGATTTCCTGTGCTATCACGGAGTCACCTAGTGCAG”, the binding signal is 32700 fluorescence intensity (a.u.). With “CCAAATGATTTCACTTGAAGATAAATGAATTCATTGTATGCGGAGTCACCTAGTGCAG” the figure was 10900 fluorescence intensity (a.u.). With “GCCCAATTAAGACTGTTTCAGTACATTAATCACCAAAGAACGGAGTCACCTAGTGCAG” the figure was 10700 fluorescence intensity (a.u.); with “TGGTATAAATTAAATCGAGATATATTATATTATTATATCTCGGAGTCACCTAGTGCAG”, 6020 fluorescence intensity (a.u.). The same measure for “GCCCATCAGTCACCGCCGGAATTAAATCCCAGCGAATCCCCGGAGTCACCTAGTGCAG”: 4000 fluorescence intensity (a.u.); for “ATCACATAAAATTCCAGGGTTAATTGGATCCATGCTACTGCGGAGTCACCTAGTGCAG”: 8150 fluorescence intensity (a.u.). For the sequence “AACTTGATAGAAACGCCTGTGCTTTCTTGCTTCTATTCTGCGGAGTCACCTAGTGCAG”, the binding signal was 9240 fluorescence intensity (a.u.).

For the sequence “GGAAAATTTGCTTGTCCTAAATCTCGAGAATTAACAATAGCGGAGTCACCTAGTGCAG”, the binding signal is 3480 fluorescence intensity (a.u.).

As to “TTAAATAACTTATAATTATAATATGAAATGGACGGAATATCGGAGTCACCTAGTGCAG”, the binding signal was 29200 fluorescence intensity (a.u.). The same measure for “GGTTTAATCATTGACAAAATTAAACTGACTAGGAATGAAACGGAGTCACCTAGTGCAG”: 31500 fluorescence intensity (a.u.); for “CATGGATAATTTGTTTTGGAGTGACACACTGACACTGATGCGGAGTCACCTAGTGCAG”: 9780 fluorescence intensity (a.u.).
